# Results published in article PMC12040169 (PLOS Biology, 2025).
# This is one part of the list.
# Test system: T1, C. trachomatis L2/434/Bu expressing GFP (CTL2-GFP)
# T1 construct: L2/434/Bu GFP intracellular growth in HeLa cells
# Design: species or system HeLa; C. trachomatis total inclusion area by high-content imaging, normalised to DMSO
# Settings: total inclusion area; 28.5 h, 10 µM; inhibitor
# In short: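 Imaging read-out: GFP inclusions and Hoechst nuclei captured by high-content imaging after fixation. Inclusion area/number = chlamydial growth; nuclei count = host cell viability. MIC calculated per earlier method.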
row,SMILES,% of control remaining
1,NC(=O)c1cccc(COc2ccccc2C(=O)Nc2ccc(-c3ccsc3)cc2C(=O)O)c1 [CBK001718],122.633
2,O=C(O)c1ccc(NS(=O)(=O)c2cc(F)c(Br)cc2F)cc1 [CBK034045],103.214
3,O=C(NCc1ccc(C(F)(F)F)nc1)OCCc1ccncc1 [CBK200132],90.4652
4,COc1ccc(C(=O)Nc2nc3ccc(S(C)(=O)=O)cc3s2)cc1 [CBK287338],100.037
5,CC(=O)N(C)c1nc(-c2ccccc2)ccc1C(=O)NCc1ccco1 [CBK106334],105.411
6,Fc1ccc(CNc2c(-c3cccs3)nc3cnccn23)cc1 [CBK283487],74.7952
7,Nc1ncc(-c2cccnc2)nc1-c1ccc(C(=O)N2CCOCC2)cc1 [CBK064059],128.467
8,CCOC(=O)C1CCCN(Cc2cccc(Cl)c2Cl)C1 (stereo not shown) [CBK307056],65.4171
9,O=C(NC(c1ccccc1)c1cccnc1)C1CCN(C(=O)NC2CCCCC2)CC1 (stereo not shown) [CBK060378],99.7872
10,CNC(=O)Nc1cc(C(O)(C(F)(F)F)C(F)(F)F)ccc1C [CBK006970],57.2656
11,C(=N\c1nc2ccccc2n1CCN1CCOCC1)/c1ccc2c(c1)OCO2 [CBK262270],90.7297
12,Cc1ccc(S(=O)(=O)CC(=O)N2CCC3(CCN(C(=O)Cc4c[nH]c5ccccc45)C3)C2)cc1 (stereo not shown) [CBK131443],87.3156
13,C=C(C)CN1CCN(C(C(=O)O)c2c[nH]c3ccc(OCc4ccccc4)cc23)CC1 (stereo not shown) [CBK286668],105.467
14,O=c1cc(Cn2ccnc2)c2cc3c(cc2o1)CCC3 [CBK287813],93.9437
15,Cc1nnc(SCC(=O)Nn2c(-c3ccccc3)nc3ccccc3c2=O)[nH]1 [CBK268841],97.3978
16,O=C(COc1ccc2c(c1)OCO2)Nc1ccccn1 [CBK288148],91.4171
17,Cc1ccc(S(=O)(=O)NCC(=O)Nc2ccc(C)cc2C(=O)c2ccccc2)cc1 [CBK265199],115.645
18,COC(=O)c1ccccc1NC(=O)c1cc2nc(-c3cccs3)cc(C(F)(F)F)n2n1 [CBK262524],118.114
19,COCCn1c(SCc2ccc([N+](=O)[O-])cc2)nnc1-c1ccccc1 [CBK265937],73.7075
20,O=C(NCc1cccc(C(F)(F)F)c1)N1CCCC(CO)C1 (stereo not shown) [CBK156033],96.2425
21,O=C(NCCCn1ccnc1)c1ncoc1-c1cccs1 [CBK282404],84.0587
22,COc1ccccc1-c1nccnc1OCCC(C)C [CBK106818],79.913
23,CC(OC(=O)c1ccc2c(c1)C(=O)N(c1ccc([N+](=O)[O-])cc1)C2=O)C(=O)c1ccccc1 (stereo not shown) [CBK157061],102.347
24,Cc1ccc(C(=O)N2CCC3(CC2)CC(=O)c2cc(Br)ccc2O3)cc1C [CBK162264],87.9721
25,COc1cccc(C2C(C(=O)c3ccc(C)o3)=C(O)C(=O)N2CCN2CCOCC2)c1 (stereo not shown) [CBK264899],108.56
26,Cc1ccc(C(=O)NCC(O)c2ccc(F)cc2F)cn1 (stereo not shown) [CBK297751],90.1174
27,CN(C(=O)CCn1c(=O)oc2cc(Cl)ccc21)C1(C(N)=O)CCCC1 [CBK305493],85.3344

row,SMILES,% of control remaining
1,CCN(CCn1cccn1)c1nc2nonc2nc1NC1CCCC1 [CBK307589],60.3207
2,CCn1cnc2c1CCC(CN/C(=N/C(=O)c1ccccc1)NC)C2 (stereo not shown) [CBK010036],96.827
3,OCc1ccc(-n2ncc(-c3ccc(C(F)(F)F)cc3)n2)cc1 [CBK112696],82.3687
4,Cc1nn(C)cc1CN1CCN(CC2(c3ccccc3)CC2)CC1 [CBK282721],131.017
5,COC(=O)c1ccc(NS(=O)(=O)c2ccc(C)c(C(=O)O)c2)c(C)c1 [CBK296684],117.161
6,O=C(/C=C/c1ccc(Cl)cc1Cl)Nc1sc2c(c1C(=O)NCc1cccnc1)CCCC2 [CBK265497],76.463
7,CC(C)CSc1nc(O)cc(=O)n1Cc1ccccc1 [CBK291170],63.3428
8,COc1ccc(COc2nccnc2N2CCCC2)cc1OC [CBK116613],93.6362
9,Cn1ncc2c(NCc3cccc(Cn4cncn4)c3)ncnc21 [CBK304241],79.8627
10,Cc1ccccc1NC1=NC(=O)C(CC(C)C)O1 (stereo not shown) [CBK074902],96.4906
11,CC1CCCCN1C(=O)CN1C(=O)N2CCN=C2c2ccccc21 (stereo not shown) [CBK283921],103.913
12,O=C(NCCOc1ccccc1)N1CCCC(CO)C1 (stereo not shown) [CBK156058],99.7394
13,O=C(O)CCCNc1ncnc2c1oc1ccccc12 [CBK287573],122.877
14,CCCOCC1CCN(C(=O)Nc2ccc(Oc3cccnc3)cc2)C1 (stereo not shown) [CBK306799],51.4902
15,O=C(O)CCn1c(-c2ccc(F)cc2)cc2cccnc21 [CBK282583],110.357
16,CCc1ccc(C(=O)NCCCN2CCOCC2)cc1 [CBK268144],91.0361
17,COc1ccc(C(C)C)cc1-c1nccnc1NC1CCC(N)CC1 (stereo not shown) [CBK036703],64.532
18,COCC(=O)N[C@H]1CC(C)(C)[C@@H]2C[C@@](C)(O)CC[C@]12CCC(=O)N1CCCC1 [CBK289043],104.019
19,O=[N+]([O-])c1cccc(/C=C/C=N/c2ccc3c(c2)S(=O)(=O)c2cc(/N=C/C=C/c4cccc([N+](=O)[O-])c4)ccc2-3)c1 [CBK261244],113.072
20,O=C(O)c1cccc(NS(=O)(=O)c2cccc(S(=O)(=O)c3ccc(Cl)c(Cl)c3)c2)c1 [CBK261259],109.855
21,Cc1ccc2nc(/C(C#N)=C/c3ccc(-c4ccc(S(N)(=O)=O)cc4)o3)[nH]c2c1 [CBK266386],99.8327
22,CC(=O)c1ccc(-c2cc(C(=O)NCCc3cccnc3)cnc2-c2ccc(F)cc2)s1 [CBK036614],59.6919
23,Fc1cccc(-c2cncc(NCCc3c[nH]c4ccccc34)n2)c1 [CBK065288],103.263
24,Cc1ccc(C2=CCN(CC(=O)Nc3ccc(N(C)C)cc3)CC2)o1 [CBK283604],127.585
25,CC(C)c1ccc(Cc2cnc(NC(=O)c3cc(Br)cs3)s2)cc1 [CBK300503],75.1337
26,COc1cccc2sc(N(Cc3cccnc3)C(=O)c3ccc(S(=O)(=O)N(C)C)cc3)nc12 [CBK294420],95.6071
27,O=C(NCc1c(F)cccc1F)c1ccc2nc[nH]c2c1 [CBK153315],89.8413

row,SMILES,% of control remaining
1,CC(C)(C)/N=C1/SCC(C)(/C=N\O)S1 (stereo not shown) [CBK009726],97.3654
2,O=C(O)c1cc(Cl)c2c(c1)[C@@H]1C=CC[C@@H]1[C@H](c1cccc(Br)c1)N2 [CBK077927],87.5302
3,COc1ccc(-c2cc3ncnc(Sc4nnnn4CC4CCCO4)c3s2)cc1 (stereo not shown) [CBK297157],93.3739
4,O=C1CCC(=O)N1CCOc1nccnc1N1CCN(CC2CCCCC2)CC1 [CBK084306],87.1876
5,CC(=O)OC(Cn1c2ccccc2c2ccccc21)Cn1c2ccccc2c2ccccc21 [CBK262307],100.969
6,O=C(Cn1c(C2CCOCC2)cc2cccnc21)NC1CCCC1 [CBK285157],103.765
7,COc1cccc2c1cc(C(=O)NCCCc1ccccn1)n2C [CBK283283],95.8073
8,COc1ccc(S(=O)(=O)N(C)CC(=O)O)cc1 [CBK287086],111.373
9,Cn1ccnc1CN1CCCC(CCC(=O)Nc2ccccc2F)C1 (stereo not shown) [CBK307462],86.292
10,CCCC(=O)N1CCCCC1c1nn(C)cc1-c1cc(C)no1 (stereo not shown) [CBK283407],84.6998
11,C(=C\c1nccnc1OCCn1cccc1)/c1ccccc1 [CBK106884],93.0342
12,Cc1cc(NC(=O)CSc2nc3c(c(C(F)(F)F)n2)CCc2ccccc2-3)n(-c2ccccc2)n1 [CBK266086],117.708
13,COc1cc(NC(=O)N2CCC3(CC2)CC(=O)c2ccc(C)cc2O3)cc(OC)c1 [CBK166521],108.586
14,COc1cccc(C(=O)NCC(C)(C)SCc2ccc(F)cc2)c1 [CBK022322],94.3859
15,CCCc1cc(C(=O)OC)c(NC(=O)C2C3CCC(C3)C2C(=O)O)s1 (stereo not shown) [CBK057885],31.6075
16,CC(C)Nc1cc(OCc2ccc(F)cc2)ncn1 [CBK115654],128.574
17,Cc1csc(C(Cc2cccs2)NC(=O)CN(C)C)n1 (stereo not shown) [CBK285124],97.9456
18,O=P(O)(CCc1ccccc1)CN1CCCCC1 [CBK262318],78.2371
19,CN(C(=O)c1cc(O)nc2ccccc12)c1nccs1 [CBK297778],68.9132
20,CCCCn1ncnc1-c1cnc2ccnn2c1C [CBK307305],74.3411
21,Cc1nc(-c2nnc(SCc3ccc(C(F)(F)F)cc3)o2)cs1 [CBK067715],79.0994
22,O=[N+]([O-])c1ccc(S(=O)(=O)NCCc2nc3ccccc3[nH]2)cc1 [CBK261796],77.165
23,CN1C(=O)NC(c2ccc(Br)cc2)C2=C1CN(c1cccc(C(=O)O)c1)C2=O (stereo not shown) [CBK286729],73.3606
24,CCCCc1ccc(S(=O)(=O)n2ccc3c(N4CCNCC4)nccc32)cc1 [CBK045805C],103.817
25,COC(=O)c1cc(-c2ccccc2)sc1NC(=O)CSc1ncnc2sc3c(c12)CCC3 [CBK265978],138.129
